The results in this text go back to PubChem BioAssay (NCI).

Molecules are shown by their SMILES.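 Where inhibition never reached the appropriate level, the endpoint shown equals the highest concentration tested. Otherwise, values were interpolated linearly from a five-concentration, 48-hour dose response in 96-well plates. At the GI50, growth is halved. Definition used: TGI = concentration required for complete inhibition of growth.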 Bounds are passed on as bounds.

For this test, the system named is NCI-H322M lung. The experiment in a line: NCI-60 cell line screen, 48 h.
`Cn1cnc([N+](=O)[O-])c1SC1=NCCS1` showed a TGI greater than 100 µM.

In the case of `COC(=O)c1oc2c(O)c(OC)c(Br)cc2c1C`, the GI50 is 15.8 µM and the TGI was 42.4 µM.

As for `O=c1oc2ccc(F)cc2c(=O)n1-c1ccc(Cl)cc1F`, the GI50 was 0.691 µM and the TGI was greater than 29 µM.

Compound `c1ccc(SC(Sc2ccccc2)c2ccc3c(c2)OCO3)cc1` returned a TGI greater than 100 µM.

Take `N#CC(C#N)=Cc1ccc(C=C2SC3=C(SCCS3)S2)s1`: the TGI is greater than 100 µM.

Turning to `CCCCCCCCCCCCSC(=NC)NC`, the GI50 is 3.34 µM and the TGI is 12.5 µM.

With `O=C1c2ccccc2C(=O)C2C3c4ccccc4C(c4ccccc43)C12` (centres undefined), the TGI was greater than 100 µM.

As to `COc1cc(Nc2ncc3c(C)nc(-c4cccc(Oc5ccccc5)c4)n3n2)cc(OC)c1OC`, the GI50 is 5.57 µM and the TGI is greater than 25 µM.

The compound `Cc1nc(N)c(N2CCN(Cc3ccccc3)CC2)c(=O)[nH]1` gave a TGI greater than 100 µM.

On to `Cc1cc(Cl)ccc1NC(=O)CC1SC(N)=NC1=O` (centres undefined), for which the TGI is greater than 100 µM.

The compound `CC(C)[Si](OCC1CC(C[C@H]2CC(C[C@H]3C[C@@H](CO[Si](C(C)C)(C(C)C)C(C)C)OC(C)(C)O3)OC(C)(C)O2)OC(C)(C)O1)(C(C)C)C(C)C` (some centres undefined) registered a TGI greater than 100 µM.

`CC(=O)Nc1ccc2c(c1)C(=O)c1cccc(F)c1-2`: the TGI is greater than 100 µM.

For `Cn1cnc([N+](=O)[O-])c1Sc1nc2cccnc2s1`, the TGI was greater than 100 µM.

The compound `OCCCCn1cc(Cn2ncc3c(SCc4ccccc4)ncnc32)nn1` displayed a TGI greater than 100 µM.

As to `CCOP(=O)(OCC)/C(C#N)=C/c1ccc[nH]1`, the TGI was greater than 100 µM.

The compound `Cc1cc(C)nc(NS(=O)(=O)c2ccc(NNC(=O)c3cccc4c(NNc5ccc(S(=O)(=O)Nc6nc(C)cc(C)n6)cc5)c5ccccc5nc34)cc2)n1` registered a TGI of 45.2 µM.

`N#Cc1c(-c2ccc(Cl)cc2)c(-c2ccc(Cl)cc2)nn(CCOC(=O)CCC(=O)O)c1=O` displayed a TGI of 62.1 µM.

As to `NC(N)=N/N=C(/c1ccccc1)c1ccc(Cl)cc1`, the GI50 is 34.9 µM and the TGI is greater than 100 µM.

For `O=C(Nc1ccc(Cl)cc1)c1ccc([N+](=O)[O-])o1`, the GI50 was 4.73 µM and the TGI stood at 12.4 µM.

Turning to `O=C(O)c1cncc(C(=O)O)c1`, the TGI was greater than 100 µM.

With `COc1ccc(/C(=N\O)c2cc(OC)c(OC)c(OC)c2)c(OC)c1N`, the GI50 was 5.96 µM and the TGI was greater than 100 µM.

In turn, `N#CCCN(CCC#N)c1ccc(/C=N\c2nc(-c3ccccc3)cs2)cc1` showed a TGI greater than 100 µM.

In turn, `CC1C=CC(C)C2(O)C(=O)NC(O)C12` (centres undefined) gave a TGI greater than 100 µM.

`CCCCCCCCCCCCCC(=O)OC(/C=C/C(C)C)C(O)C(O)C(OC)C(=O)NC1CCCCNC1=O` (centres undefined) came in with a TGI of 6.94 µM.

Turning to `CC(C)=CCc1ccc(O)c(=O)cc1C(C)C`, the GI50 was 0.378 µM and the TGI was greater than 30.9 µM.

As for `CC(=O)N1C(C(=O)NNc2ccccc2)CSC1c1ccccc1` (centres undefined), the TGI is greater than 100 µM.

In turn, `Nc1ccc(C(=O)NN2C(=O)C(Cl)C2c2ccc([N+](=O)[O-])cc2)cc1` (centres undefined) gave a TGI of 26.8 µM.

In the case of `COc1cc(C2c3[nH]c4ccc(F)cc4c3C[C@H]3COC(=O)N23)cc(OC)c1O` (some centres undefined), the TGI was greater than 100 µM.

For `COc1cc(/C=C/C(=O)C(C(=O)/C=C/c2ccc(OC(=O)CCNc3nnc(C)s3)c(OC)c2)C(=O)CCNc2nnc(C)s2)ccc1OC(=O)CCNc1nnc(C)s1`, the GI50 was 6.77 µM and the TGI is 18.6 µM.

As to `O=C(NCC(=O)N1CC[C@H](NC2CCC(O)(c3ccc(-c4ncccn4)cn3)CC2)C1)c1cccc(C(F)(F)F)c1` (some centres undefined), the GI50 was greater than 100 µM and the TGI was greater than 100 µM.

In turn, `O=C1CCCC(=O)C1=C(O)CCCCCCCCCCc1ccccc1` registered a TGI greater than 100 µM.

`CCOC(=O)/C=C(\C(=O)OCC)n1cnc2c(N)ncnc21`: the TGI turned out to be 30.2 µM.

With `CCn1c(-c2ccccc2)nc2c1C(=O)c1ccccc1C2=O`, the TGI was greater than 100 µM.

Consider `CCN(CC)CCC(=O)c1ccccc1`, for which the TGI is greater than 100 µM.
